# Measured values published in US20080311122A1, “Antagonists of Hmgb1 and/or Rage and Methods of Use Thereof” (Medimmune, LLC, priority 2005, published 2008).
# “Also recorded” adds a separate entry of the source.
# T1: HMG1 (recombinant, native; immobilized, soluble) (Homo sapiens, UniProt P09429)
# T1 construct: made in house; host or cells: E. coli
# T1 sequence (P09429 1-215): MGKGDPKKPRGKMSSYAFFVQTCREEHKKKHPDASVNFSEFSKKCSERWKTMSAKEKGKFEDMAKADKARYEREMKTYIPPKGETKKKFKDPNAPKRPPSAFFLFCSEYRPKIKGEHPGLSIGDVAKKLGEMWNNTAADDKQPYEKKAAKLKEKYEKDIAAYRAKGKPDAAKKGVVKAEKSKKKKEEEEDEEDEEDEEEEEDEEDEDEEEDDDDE
# B1: S6: human anti-HMG1 antibody, ATCC PTA-6143; VL/VH aa SEQ ID NO: 9/11 (antibody, listed as Homo sapiens, V domains shown)
# VH: EVQLLESGGGLVQPGGSLRLSCAASGFTFSWYDMSWVRQAPGKGLEWVSRISPSGGYTMYADSVKGRFTISRDNSKNTLYLQMNSLRAEDTAVYYCARLEVGATSGGTAFDIWGQGTMVTVSS
# VL: [gap - about 100 residues]
# What was measured:
# [1] = Isoelectric focusing gel electrophoresis; assay type: physicochemical
# Procedure: Isoelectric Focusing Gel Electrophoresis: Isoelectric points were determined using a Pharmacia Biotech Multiphor 2 electrophoresis system with a multi temp 3 refrigerated bath recirculation unit and an EPS 3501 XL power supply. Pre-cast ampholine gels (Amersham Biosciences, pI range 2.5-10) were loaded with 5 μg of protein. Broad range pI marker standards (Amersham, pI range 3-10, 8 μL) were used to determine relative pI for the Mabs. Electrophoresis was performed at 1500 V, 50 mA for 105 minutes. The gel was fixed using a Sigma fixing solution (5×) diluted with purified water to 1×. Staining was performed overnight at room temperature using Simply Blue stain (Invitrogen). Destaining was carried out with a solution that consisted of 25% ethanol, 8% acetic acid and 67% purified water. Isoelectric points were determined using a Bio-Rad Densitometer relative to calibration curves of the standards.
# [2] = tested on: recombinant HMG1 stimulated cytokine release from human PBMCs; experiment: Inhibition of cytokine release from PBMCs, recombinant HMG1; assay type: cell-based; conditions: among antibodies examined
# Procedure: Inhibition of Cytokine Release: Human peripheral blood mononuclear cells (PBMCs) were isolated from the peripheral blood of healthy volunteers by a density gradient centrifugation. Freshly drawn heparinized whole blood was mixed with two volume of PBS. The diluted blood was gently layered on the surface of Histopaque-1077 (Sigma-Aldrich) and centrifuged at 400×g, at RT for 30 minute. PBMCs were collected from the interface between the plasma and the density gradient solution. After washing in PBS 3×, the purified PBMCs were resuspended in RPMI-1640 medium (GIBCO BRL) containing 100 U/ml penicillin, 100 μg/ml streptomycin and […] β-mercaptoethanol. 1×10^5 of cells was added in each well of 96-well cell culture plates. […]
# The culture media were analyzed for inflammatory cytokines using Beadlyte human multi-cytokine flex kit from Upstate by Luminex 100 (Luminex Corp.). Proinflammatory cytokines TNF-α, IL-6, IL-1β and IL-12 (p40) were measured for cells stimulated with recombinant HMG1. In addition, TNF-α, IL-6, IL-1β and IL-8 were measured for cells stimulated with native activated HMG1.
# Cytokine release data is presented as mean of triplicates±standard deviations. […] It was calculated by PRISM program.
# [3] = biological target: T1, HMG1 (recombinant, native; immobilized, soluble); experiment: Direct and sandwich (capture) ELISA comparing forms of HMG1; assay type: binding
# Procedure: (§1) Direct ELISA (immobilized HMG1): Individual wells of a 96-well immunoplate (EIA/RIA plate, High binding, Costar) were coated with HMGB-1 at 5 μg/ml in PBS at 4° C. overnight. The plate was then blocked with 4% milk powder dissolved in PBS at 37° C. for 1 hour. The blocking solution was removed and replaced with human anti-HMG1 antibodies at various concentrations (see FIG. 4A). The plate was then washed (ELX-405 Plate washer, BIO-TEK) and secondary antibody (anti-human IgG-HRP, PIERCE) was added at a final concentration of 1:125,000 at 37° C. for 1 hour. HRP activity was detected with Sureblue HRP substrate (KPL). Plates were read at 450 nm using a Kinetic Microplate Reader (Molecular Devices).
# (§2) Sandwich ELISA (soluble HMG1): Immunoplates (EIA/RIA plate, High binding, Costar) were coated with anti human IgG Fc at 10 μg/ml in PBS (pH 7.2) and incubated at 4° C. overnight. The coating reagent was removed and the plates were rinsed briefly with PBS. The plates were then blocked with 4% milk for 1 hour at 37° C. and rinsed with PBS. The anti-HMG1 antibodies were diluted in 4% milk. For serial dilutions, the antibodies were used at a starting concentration of 20 μg/ml. […] HRP activity was detected with Sureblue HRP substrate (KPL). Plates were read at 450 nm using a Kinetic Microplate Reader (Molecular Devices).
# [4] = tested on: HMG1 (recombinant, native; immobilized, soluble); experiment: as above; assay type: binding
# Procedure: as §1, §2
molecule,measurement,setting,value
B1,PI,[1],8.81
same,comparison as inhibitor of cytokine / NO release,[2],"among the best inhibitor of IL-1β, TNF-α, IL-6 and NO release"
same,"binding to native nuclear, necrotic (released) and activated HMG1",[3],doesn't bind well to any native form of HMG1; also recorded: some binding of released HMG1; also recorded: bind with differing affinities to the various forms
same,binding to recombinant HMG1 versus native HMG1,[4],better binding to rHMG1; also recorded: bind better to recombinant HMG1 than to native nuclear HMG1
